First the molecules themselves.
B1: V5-tagged RhoD (protein, UniProt O00212 1-210)
chain: MTAAQAAGEEAPPGVRSVKVVLVGDGGCGKTSLLMVFADGAFPESYTPTVFERYMVNLQVKGKPVHLHIWDTAGQDDYDRLRPLFYPDASVLLLCFDVTSPNSFDNIFNRWYPEVNHFCKKVPIIVVGCKTDLRKDKSLVNKLRRNGLEPVTYHRGQEMARSVGAVAYLECSARLHDNVHAVFQEAAEVALSSRGRNFWRRITQGFCVVT
B2: V5-tagged RhoH (protein, UniProt Q15669 1-191)
chain: MLSSIKCVLVGDSAVGKTSLLVRFTSETFPEAYKPTVYENTGVDVFMDGIQISLGLWDTAGNDAFRSIRPLSYQQADVVLMCYSVANHNSFLNLKNKWIGEIRSNLPCTPVLVVATQTDQREMGPHRASCVNAMEGKKLAQDVRAKGYLECSALSNRGVQQVFECAVRTAVNQARRRNRRRLFSINECKIF
B3: V5-tagged Rnd2 (protein, UniProt P52198 1-227)
chain: MEGQSGRCKIVVVGDAECGKTALLQVFAKDAYPGSYVPTVFENYTASFEIDKRRIELNMWDTSGSSYYDNVRPLAYPDSDAVLICFDISRPETLDSVLKKWQGETQEFCPNAKVVLVGCKLDMRTDLATLRELSKQRLIPVTHEQGTVLAKQVGAVSYVECSSRSSERSVRDVFHVATVASLGRGHRQLRRTDSRRGMQRSAQLSGRPDRGNEGEIHKDRAKSCNLM
B4: V5-tagged Wrch2/RhoV (protein, UniProt Q96L33 1-236)
chain: MPPRELSEAEPPPLRAPTPPPRRRSAPPELGIKCVLVGDGAVGKSSLIVSYTCNGYPARYRPTALDTFSVQVLVDGAPVRIELWDTAGQEDFDRLRSLCYPDTDVFLACFSVVQPSSFQNITEKWLPEIRTHNPQAPVLLVGTQADLRDDVNVLIQLDQGGREGPVPQPQAQGLAEKIRACCYLECSALTQKNLKEVFDSAILSAIEHKARLEKKLNAKGVRTLSRCRWKKFFCFV
B5: V5-tagged RhoF (protein, UniProt Q9HBH0 1-211)
chain: MDAPGALAQTAAPGPGRKELKIVIVGDGGCGKTSLLMVYSQGSFPEHYAPSVFEKYTASVTVGSKEVTLNLYDTAGQEDYDRLRPLSYQNTHLVLICYDVMNPTSYDNVLIKWFPEVTHFCRGIPMVLIGCKTDLRKDKEQLRKLRAAQLEPITYMQGLSACEQIRAALYLECSAKFRENVEDVFREAAKVALSALKKAQRQKKRRLCLLL
B6: V5-tagged Rnd1 (protein, UniProt Q92730 1-232)
chain: MKERRAPQPVVARCKLVLVGDVQCGKTAMLQVLAKDCYPETYVPTVFENYTACLETEEQRVELSLWDTSGSPYYDNVRPLCYSDSDAVLLCFDISRPETVDSALKKWRTEILDYCPSTRVLLIGCKTDLRTDLSTLMELSHQKQAPISYEQGCAIAKQLGAEIYLEGSAFTSEKSIHSIFRTASMLCLNKPSPLPQKSPVRSLSKRLLHLPSRSELISSTFKKEKAKSCSIM

These are yes or no findings as the source states them, for the method shown. Binding seen in cells or lysates may run through a third protein. Some binding calls cover weakened binding; strength is not graded here. Sequences can lack the tags named with a protein.

The target in the first assay is T1, FLAG-tagged RhoGDI-3 (human) (UniProt Q99819).
T1 sequence: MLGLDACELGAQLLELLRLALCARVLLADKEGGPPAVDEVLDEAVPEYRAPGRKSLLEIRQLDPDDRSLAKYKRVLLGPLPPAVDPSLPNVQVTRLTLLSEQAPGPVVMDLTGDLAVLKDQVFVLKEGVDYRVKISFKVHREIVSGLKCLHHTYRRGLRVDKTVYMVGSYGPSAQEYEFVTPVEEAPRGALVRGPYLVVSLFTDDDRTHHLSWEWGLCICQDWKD
Nature of the assay: co-IP; FLAG-tagged RhoGDI-3 co-expressed with V5-tagged GTPase in HEK293T; immunoprecipitated from lysate with anti-FLAG antibody cross-linked to magnetic beads; anti-V5 Western blot.
Take B1: the binding entry was “binds”.

For the molecule B2, the binding result is reported as “binds”.

For the molecule B3, the binding result is given as “binds”.

On to B4, for which the binding entry is listed as “binds”.

With B5, the binding entry is listed as “binds”.

In a further assay the target is His-tagged RhoGDI-1 (human) (UniProt P52565). Nature of the assay: pull-down; His-tagged RhoGDI co-expressed with V5-tagged GTPase in HEK293T; RhoGDI precipitated from lysate (1% Triton X-100, 150 mM NaCl, pH 7.4) with nickel-coated magnetic beads; anti-V5 Western blot; the paper calls it coimmunoprecipitation.
Regarding B1, the binding entry is “no binding”.

B5: the binding result is given as “binds”.

The target of another assay is His-tagged RhoGDI-2 (human) (UniProt P52566). The assay is described as above.
In the case of B1, the binding entry is reported as “no binding”.

In the case of B5, the binding result is on record as “no binding”.

The target in another assay is T2, His-tagged or FLAG-tagged RhoGDI-1 (human) (UniProt P52565).
T2 sequence: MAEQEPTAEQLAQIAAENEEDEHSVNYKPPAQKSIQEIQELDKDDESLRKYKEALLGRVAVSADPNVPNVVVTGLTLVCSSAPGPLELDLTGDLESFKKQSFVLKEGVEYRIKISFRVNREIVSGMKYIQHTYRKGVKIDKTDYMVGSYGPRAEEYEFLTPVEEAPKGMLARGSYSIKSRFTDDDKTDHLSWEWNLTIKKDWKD
Briefly: pull-down + co-IP; His-tagged or FLAG-tagged RhoGDI-1 or RhoGDI-2 co-expressed with V5-tagged atypical GTPase or Miro in HEK293T; precipitated with nickel-coated magnetic beads or with anti-FLAG antibody cross-linked to magnetic beads (not told which in each panel); anti-V5 Western blot.
With B2, the binding entry is “no binding”.

Consider B3, for which the binding entry was “no binding”.

In the case of B6, the binding entry is “no binding”.

B4: the binding result is “no binding”.

The target of a further assay is T3, His-tagged or FLAG-tagged RhoGDI-2 (human) (UniProt P52566).
T3 sequence: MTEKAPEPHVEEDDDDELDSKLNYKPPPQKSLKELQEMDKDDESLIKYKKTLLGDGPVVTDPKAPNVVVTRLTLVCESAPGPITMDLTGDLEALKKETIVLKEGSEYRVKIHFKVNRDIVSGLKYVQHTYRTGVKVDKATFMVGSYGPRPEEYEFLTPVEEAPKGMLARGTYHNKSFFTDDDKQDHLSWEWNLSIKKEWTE
Described as above.
B2: the binding result is listed as “no binding”.

Turning to B3, the binding result was “no binding”.

As to B6, the binding entry is recorded as “no binding”.

Turning to B4, the binding result is “no binding”.

For the origin of these results see publication PMC8253491.
